Data taken from PubChem BioAssay AID1963576 (National Center for Advancing Translational Sciences (NCATS), 2024).
Out of some 46,000 compounds screened, about 60 (0.1%) were called active. Roughly 3% stayed inconclusive and do not appear here. Calls come from the whole dose curve; as a rule, active = well fitted inhibition curve with a large enough effect; inconclusive = small, poorly fitted or top-dose-only effect; inactive = no such curve, though single readings can be large or run the other way. Some of the results follow.

Experiment: Primary qHTS assay for Inhibitors of ovarian cancer metastasis using an organotypic tumor microenvironment (TME) model.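 For activity change, negative = inhibition: plate controls were DMSO wells for no effect and tomatine positive control wells for full effect.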 Note: nearly all actives have a fitted effect of over 65% in size.
Conditions: SKOV3ip1-GFP adhesion/invasion on 3D omental model, fluorescence; series mostly up to 45.8 µM; activity change, negative = inhibition: at the top concentration
Outline: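 qHTS, 4-pt dose (0.36-46 umol/L); SKOV3ip1-GFP, 1,200 cells/well, no FBS; primary omental fibroblast/mesothelial co-culture 48 h pre-grown; 2 h RT + 16 h 37 C; PBS wash, 4% PFA; GFP count 488/509 nm.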

Structure (SMILES)	activity change, negative = inhibition	outcome
COc1cc(OC)c(N(C)C(=O)c2cn(C3CCCC3)c(=O)c3c2c2ccccc2n3C)cc1Cl	inactive: 18.1%	
Cc1ccccc1C(=O)OCc1cc(=O)n2nc(C(C)C)sc2n1		inactive
CCN1C(=O)C(Cc2nc3ccccc3c(=O)n2C)c2cc(C)ccc21 (configuration not stated)	inactive: 0.164%	
O=C(Nc1ccc(Cl)cc1)c1cc(S(=O)(=O)NC2CCCCCC2)ccc1F		inactive
CCc1ccc(S(=O)(=O)c2nnn3c2nc(NCc2ccccc2)c2cc(Cl)ccc23)cc1	inactive: 4.12%	
COc1ccccc1-c1nc2cc(NC(=O)c3ccccc3Cl)ccc2o1	inactive: -7.73%	
O=C(CN1CCN(Cc2ccccc2Cl)C1=O)NCCc1ccc(Cl)cc1		inactive
COc1cc(NS(=O)(=O)c2ccc(-c3cc(C)no3)cc2)cc(OC)c1	inactive: -9.5%	
Cc1ccc(-c2csc3ncnc(Nc4ccc(C(=O)O)cc4)c23)cc1	inactive: -9.92%	
CCOc1ccc(C(=O)Nc2ccc3c(c2)OCCO3)cc1Br		inactive
CCCNC(=O)C(Cc1ccccc1)NS(=O)(=O)c1ccc2c(c1)c(=O)n(C)c(=O)n2C (configuration not stated)		inactive
Cc1nc(S(=O)(=O)N2CCN(c3ccccc3F)CC2)cn1C	inactive: 11.1%	
COc1ccc(OC)c(/C=C(\C#N)c2nc(-c3ccc(F)cc3)cs2)c1	inactive: -9.42%	
COc1ccc(Cn2c(C(=O)O)c(CNC3CCCCC3)c3ccc(C)cc32)cc1	inactive: 2.76%	
COC(=O)c1ccc2c(c1)N(Cc1ccccc1)C(=O)c1ccccc1S2(=O)=O	inactive: 6.92%	
COc1ccc(Cl)cc1NC(=O)CN1Cc2ccccc2C1=O		inactive
COc1ccccc1NC(=O)c1sc2nc3n(c(=O)c2c1C)N=C(c1cccc(Br)c1)CS3	inactive: -1.95%	
COc1ccc2c(c1)CCc1c(C(=O)Nc3ccc(OC)cc3OC)noc1-2	inactive: 5.59%	
Cc1cccc(CNC(=O)CN2C(=O)CCn3nc(-c4cn(C)c5ccccc45)cc32)c1	inactive: -3.81%	
CCCC12CN3CC(C)(CN(C1)C3c1ccc(OCc3ccccc3)cc1)C2=O (configuration not stated)	inactive: -0.731%	
Cc1ccc(SCc2nc(-c3ccc(C(=O)NCC(C)c4ccccc4)cc3)oc2C)cc1 (configuration not stated)	inactive: 6.06%	
CCOc1ccc(NC(=O)Cc2c[nH]c3ccccc23)cc1	inactive: 4.23%	
O=C(O)c1ccc(NC(=O)c2ccc(Br)c(S(=O)(=O)N3CCCC3)c2)cc1	inactive: -6.59%	
Nc1c(-c2nc(-c3ccc4c(c3)OCO4)cs2)c2ccccn2c1C(=O)c1ccc(Cl)cc1	inactive: 0.214%	

Structure (SMILES)	activity change, negative = inhibition	outcome
COc1cc(C(CC(=O)Nc2ncccc2C)N2Cc3ccccc3C2=O)cc(OC)c1OC (configuration not stated)	inactive: -7.29%	
Cc1cccc(CNC(=O)CN2C(=O)CSc3c2c(C)nn3-c2ccccc2)c1		inactive
CCOC(=O)c1cnc2ccc(OCC)cc2c1Nc1ccc(OCc2ccccc2Cl)cc1	inactive: -14.2%	
CCN(c1ccccc1)S(=O)(=O)c1ccc(NC(=O)c2nc(SC(C)C)ncc2Cl)cc1	inactive: 0.546%	
Cc1ccc(C(=O)N2CCC(C)CC2)cc1NC(=O)c1nsc2ccccc12	inactive: 2.66%	
O=C(OCc1cc(=O)n2nc(C3CC3)sc2n1)c1ccc(NC(=O)c2ccccc2F)cc1	inactive: -6.67%	
CCOc1ccc(Br)cc1C1NC(=O)c2c(sc3c2CCN(C)C3)N1 (configuration not stated)	inactive: 8.7%	
CC1(C)CC(=O)c2c(C(F)(F)F)nn(-c3ccc(C(N)=O)c(NC4CCC(O)CC4)c3)c2C1 (configuration not stated)	inactive: -5.46%	
COc1ccc(-c2nc3cc(NC(=O)c4ccc(C)cc4)ccc3o2)cc1Cl		inactive
CC(=O)c1cc(-c2ccc(F)cc2)n(CCC(=O)Nc2nc3ccc(C)cc3s2)c1C	inactive: 1.81%	
CCc1ccccc1NC(=O)c1ccc(F)c(S(=O)(=O)N2CCN(c3cccc(Cl)c3)CC2)c1	inactive: 6.91%	
CC1CCCCN1CCCNC(=O)Cn1ncc2c3ccccc3n(C)c2c1=O (configuration not stated)	inactive: 7.6%	
Cc1ccc(S(=O)(=O)c2cc3cc(C(=O)Nc4ccc(C)cc4C)ccc3oc2=O)cc1	inactive: -8.74%	
COc1ccc(CCNc2ncnc3onc(C)c23)c(OC)c1	inactive: 3.81%	
COCCCn1c(=N)c(C(=O)NC2CCCCC2)cc2c(=O)n3cc(C)ccc3nc21		inactive
CC1CCN(S(=O)(=O)c2ccc3nc(N4CCN(c5ccc(F)cc5)CC4)ccc3c2)CC1	inactive: -0.148%	
C[C@]12CC[C@H](O)CC1=CC[C@@H]1[C@H]2CC[C@]2(C)C(c3cccnc3)=CC[C@H]12	inactive: -14.4% [at 23.2 µM]	
CC(C)OCCCNC(=O)CCCN1C(=O)CCn2nc(-c3cccn3C)cc21	inactive: -0.282%	
O=C(COCc1cc(-c2cccs2)on1)Nc1cc(C(F)(F)F)ccc1Cl	inactive: 1.62%	
COc1ccc(-c2cc(C(F)(F)F)nc(NCc3ccc(F)cc3)n2)cc1		inactive
CCOc1ccc(NC(=O)CSc2oc(-c3ccc(C)cc3)nc2S(=O)(=O)c2ccc(C)cc2)cc1	inactive: -0.872%	
COc1cccc(C(=O)N(Cc2ccc(C)o2)C2CCS(=O)(=O)C2)c1 (configuration not stated)	inactive: 4.34%	
COc1ccc(CCNC(=O)c2ccc(Cn3c(=O)[nH]c4cc(OC)c(OC)cc4c3=O)cc2)cc1OC		inactive
